# Results published in PubChem BioAssay (NCATS).
# Some of the results follow. The main result of the screen is listed elsewhere. These columns were measured beside it and carry no call. For some of these results: Most of these compounds were active or inconclusive in the main read-out, so they are no random draw. For some of these results: Potencies come from curve fits of mixed quality, noted in brackets.
# Key:
# [1] = qHTS drug screen for cell cycle checkpoint inhibitors in PARPi-resistant BRCA-mutant ovarian cancer cell lines. (AID 1963452); details: PEO1/OlaR viability, CellTiter-Glo luminescence, 96 h
# Summary of the method: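 PEO1, PEO4 and PEO1/OlaR ovarian cancer cells, 600 per well, exposed 96 h at 37C to a dilution series. Viability read by CellTiter-Glo luminescence, normalized to DMSO and empty wells; activity summarized as Z-AUC.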
# [2] = qHTS for identification of novel therapeutic agents for treatment of microphthalmiaassociated transcription factor (MiT) renal cell carcinoma (RCC) (AID 1963991); details: CellTiter-Glo, 48 h; for z-score: stronger effect = lower value
# Summary of the method: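 Viability of three TFE3-fusion renal carcinoma lines measured by CellTiter-Glo after 48 h treatment with each of 1912 compounds at 11 concentrations. Responses scaled between DMSO (100%) and empty wells (0%) before curve fitting.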
# [3] = S16 Schwann cell PMP22 intronic element beta-lactamase assay (AID 624044); details: S16 rat Schwann cells, PMP22 element beta-lactamase FRET, 24 h; measured here: 460 nm blue channel; also: nearly all actives have a fitted effect of over 15% in size
# Summary of the method: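 Rat S16 Schwann cells with beta-Lac driven by a PMP22 intronic element, compound-treated 24 h at 37 °C. LiveBLAzer FRET B/G read: 460 nm normalized to potassium clavulanate vs DMSO; 535 nm FRET as viability; concentration-effect curves classified.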
# [4] = qHTS assay for small molecule antagonists of peroxisome proliferator-activated receptor delta signaling (AID 588535); details: HEK293T PPARd-UAS-bla, beta-lactamase FRET ratio, 18 h; 460 nm channel;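 also: cells co-treated with a PPAR-delta agonist as stimulator during compound exposure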
# Summary of the method: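 Cells were seeded at 4000 per well in assay medium containing 2% charcoal/dextran FBS and held 5 hrs at 37 C. Compounds were then added for 18 hrs. CCF4 substrate was applied for 2 hrs at room temperature before fluorescence reading.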
# [5] = qHTS assay for small molecule agonists of retinoid X receptor alpha signaling (AID 588544); details: HEK293T RXRa-UAS-bla, beta-lactamase reporter, 18 h; 530 nm emission
# [6] = qHTS Validation Assay to Find Inhibitors of Chronic Active B-Cell Receptor Signaling (AID 485345); details: ABC-DLBCL cells, chronic BCR signaling reporter
# Summary of the method: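 TMD8 ABC-DLBCL cells stably carrying doxycycline-inducible IkappaBalpha–green luciferase fusion plus unfused red luciferase; compounds 46 uM to 3 nM, 4 h at 37C with doxycycline. Corrected green/red luminescence ratio normalized to 10 uM MG-132 and basal cell wells; curves fitted.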
# [7] = Nrf2 qHTS screen for inhibitors: Validation (AID 493153); details: A549 ARE-Fluc reporter, 18-24 h; AC50: CellTiter-Fluor fluorescence read, measured here: cytotoxicity CellTiter-Fluor AC50; viability change: measured here: cytotoxicity max response
# Summary of the method: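 Dose-response validation uses reporter A549 cells with firefly luciferase under an antioxidant response element. Compounds stay on cells 18-24 h at 37°C, and luminescence indicates Nrf2-driven transcription.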
# [8] = qHTS Assay for Inhibitors of PDE-IV (AID 607); details: HEK293 ACTOne CNG channel cells, membrane potential fluorescence; measured here: parental cell counter-screen;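 also: parental cells stimulated with forskolin 10 µM plus RO 20-1724 100 µM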
# Summary of the method: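 Live HEK293 cells with a modified cyclic nucleotide-gated (CNG) channel report intracellular cAMP via membrane-potential dye fluorescence (ex 535/em 590 nm). Endogenous PDE-IV was targeted. Compounds were tested at up to 22.9 uM final; RO 20-1724 100 uM served as control.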
# [9] = measured here: PEO1 parental viability
# [10] = TFE3-RCC UOK109 viability, measured here: UOK109 Z-AUC
# [11] = TFE3-RCC viability, measured here: UOK124 Z-AUC
# [12] = TFE3-RCC viability, measured here: UOK124 cell viability
# [13] = TFE3-RCC viability, measured here: UOK145 Z-AUC
# [14] = TFE3-RCC viability, measured here: UOK145 cell viability
# [15] = measured here: CBR control luciferase (viability counter)
# [16] = measured here: CBG/CBR ratio read-out
# Tags tell the direction and shape of the fitted curve.
smiles,measurement,setting,value
CCOc1cc(N2CCC(O)CC2)ccc1Nc1ncc2c(n1)N(C)c1ccccc1C(=O)N2C,AC50,[1]; [9],"24.5 µM [falling, single point]"
same,AC50,[1]; measured here: PEO4 viability,"13.8 µM [falling, partial curve]"
same,z-score,[2]; [10],0.105
same,z-score,[2]; [11],-1.03
same,AC50,[2]; [12],"1.87 µM [falling, partial curve]"
same,z-score,[2]; [13],-0.017
same,AC50,[2]; [14],"1.48 µM [falling, full curve]"
CCCCCCNC(=O)n1cc(F)c(=O)[nH]c1=O,AC50,[3],"5.01 µM [falling, full curve, poor fit]"
same,AC50,[1]; [9],"4.36 µM [falling, partial curve]"
same,AC50,[1]; measured here: PEO4 viability,"5.49 µM [falling, partial curve]"
same,z-score,[2]; [10],0.417
same,z-score,[2]; [11],0.954
same,z-score,[2]; [13],0.333
same,AC50,[2]; [14],"11.8 µM [falling, partial curve]"
Nc1nc(Cl)nc2c1ncn2[C@H]1C[C@H](O)[C@@H](CO)O1,max response,[4],172%
same,max response,[5],22.3%
same,AC50,[1]; [9],"0.49 µM [falling, full curve]"
same,AC50,[1]; measured here: PEO4 viability,"0.347 µM [falling, full curve]"
same,z-score,[2]; [10],-0.419
same,z-score,[2]; [11],0.467
same,AC50,[2]; [12],"7.43 µM [falling, full curve]"
same,z-score,[2]; [13],-1.19
same,AC50,[2]; [14],"0.833 µM [falling, full curve]"
CC[C@H]1CN2CCc3cc(OC)c(OC)cc3[C@@H]2C[C@@H]1C[C@H]1NCCc2cc(OC)c(OC)cc21,AC50,[6]; [15],"0.326 µM [falling, full curve]"
same,AC50,[1]; [9],"0.616 µM [falling, full curve]"
same,AC50,[1]; measured here: PEO4 viability,"0.389 µM [falling, full curve]"
CC(=O)N1CCN(c2ccc(OC[C@H]3CO[C@](Cn4ccnc4)(c4ccc(Cl)cc4Cl)O3)cc2)CC1,AC50,[6]; [16],"13 µM [falling, partial curve]"
same,AC50,[6]; [15],"16.4 µM [falling, single point]"
same,max response,[4],-43.8%
same,AC50,[1]; [9],"19.5 µM [falling, single point]"
same,AC50,[1]; measured here: PEO4 viability,"19.5 µM [falling, partial curve, poor fit]"
same,z-score,[2]; [10],0.381
same,z-score,[2]; [11],0.034
same,AC50,[2]; [12],"23.5 µM [falling, partial curve]"
same,z-score,[2]; [13],3.12
same,AC50,[2]; [14],"11.8 µM [falling, partial curve, poor fit]"
Nc1ncnc2nc(-c3ccc(N4CCOCC4)nc3)cc(-c3cccc(Br)c3)c12,AC50,[6]; [16],"5.17 µM [falling, partial curve]"
same,AC50,[6]; [15],"0.0366 µM [rising, full curve]"
same,AC50,[1]; [9],"0.0087 µM [rising, full curve]"
same,AC50,[1]; measured here: PEO4 viability,"27.5 µM [falling, single point]"
same,z-score,[2]; [10],0.543
same,z-score,[2]; [11],0.394
same,AC50,[2]; [12],"20.9 µM [falling, partial curve, poor fit]"
same,z-score,[2]; [13],0.382
same,AC50,[2]; [14],"23.5 µM [falling, single point]"
COc1cc2nc(N3CCCN(C)CC3)nc(NC3CCN(Cc4ccccc4)CC3)c2cc1OC,AC50,[7],"11.6 µM [falling, partial curve, poor fit]"
same,viability change,[7],-50%
same,AC50,[1]; [9],"15.5 µM [falling, single point]"
same,AC50,[1]; measured here: PEO4 viability,"17.4 µM [falling, partial curve]"
same,z-score,[2]; [10],-0.457
same,z-score,[2]; [11],-1.58
same,AC50,[2]; [12],"4.69 µM [falling, full curve]"
same,z-score,[2]; [13],-0.261
same,AC50,[2]; [14],"9.35 µM [falling, full curve]"
COc1cc(-c2nn(C3CCC(N4CCN(C(C)=O)CC4)CC3)c3ncnc(N)c23)ccc1NC(=O)c1cc2ccccc2n1C (stereo unspecified),AC50,[1]; [9],"15.5 µM [falling, partial curve]"
same,AC50,[1]; measured here: PEO4 viability,"13.8 µM [falling, single point]"
same,z-score,[2]; [10],-1.13
same,z-score,[2]; [11],-0.0955
same,AC50,[2]; [12],"1.18 µM [falling, partial curve, poor fit]"
same,z-score,[2]; [13],-0.666
same,AC50,[2]; [14],"1.48 µM [falling, full curve]"
Clc1ccc(COC(Cn2ccnc2)c2ccc(Cl)cc2Cl)c(Cl)c1 (stereo unspecified),AC50,[8],"7.94 µM [rising, partial curve]"
same,AC50,[1]; [9],"17.4 µM [falling, single point]"
same,AC50,[1]; measured here: PEO4 viability,"21.9 µM [falling, single point]"
same,z-score,[2]; [10],-0.0878
same,z-score,[2]; [11],0.0175
same,AC50,[2]; [12],"20.9 µM [falling, partial curve]"
same,z-score,[2]; [13],0.967
CCCOc1ccc2nc(NC(=O)OC)[nH]c2c1,AC50,[3],"0.794 µM [falling, full curve, poor fit]"
same,AC50,[1]; [9],"0.174 µM [falling, full curve]"
same,AC50,[1]; measured here: PEO4 viability,"0.138 µM [falling, full curve]"
same,AC50,[2]; [12],"0.0264 µM [falling, full curve]"
same,AC50,[2]; [14],"0.00469 µM [falling, full curve, poor fit]"
CC[C@]1(O)CC2CN(CCc3c([nH]c4ccccc34)[C@@](C(=O)OC)(c3cc4c(cc3OC)N(C)[C@H]3[C@@](O)(C(=O)OC)[C@H](OC(C)=O)[C@]5(CC)C=CCN6CC[C@]43[C@@H]65)C2)C1 (stereo partly specified),AC50,[3],"0.398 µM [falling, full curve]"
same,AC50,[1]; [9],"0.977 µM [falling, full curve]"
same,AC50,[1]; measured here: PEO4 viability,"1.23 µM [falling, full curve]"
